Assay results taken from PubChem BioAssay AID686979 (National Center for Advancing Translational Sciences (NCATS), 2013).
Several values for one entry are separate records, joined by “and”; a condition that tells them apart may be missing. Equal values may be shown once. The whole screen tested about 420,000 compounds, of which about 50,000 (12%) were called active. The shares of active, inactive and inconclusive entries below differ from those in the screen. The call rests on the fitted dose curve; in most records, active means well fitted inhibition curve with a large enough effect; inconclusive means small, poorly fitted or top-dose-only effect; inactive means flat fitted curve, though single readings scatter. Potencies of inconclusive entries are left out as doubtful fits.

Assay: qHTS for Inhibitors of human tyrosyl-DNA phosphodiesterase 1 (TDP1): qHTS in cells in presence of CPT; further: nearly all actives have a fitted effect of over 55% in size
Conditions: chicken DT40 Tdp1-/-;hTDP1 cells + 20 nM CPT, ATP luminescence, 48 h; activity change, negative = growth inhibition: at 46.2 µM (top of the series)
How it was run: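 Chicken DT40 Tdp1-/- cells stably complemented with human TDP1 were seeded at 400 cells/well in medium containing 20 nM camptothecin, exposed to pin-transferred compounds, and grown at 37 °C for at least 48 hr. Viability was read as ATP luminescence.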
On the % scale 0 is the no-effect control and ±100 the full control effect; potency means the concentration at half of the fitted maximal effect; tags describe the fitted curve by direction and shape.

Row | SMILES | Potency | activity change, negative = growth inhibition
1 | CCC(C)Sc1nc2c(c(=O)[nH]c(=O)n2C)n1Cc1ccc(Cl)cc1 (stereo not drawn) | inconclusive [inhibitor, single point] | –
2 | COc1ccc(OCc2nc3ccccc3n2Cc2ccc(C(C)(C)C)cc2)cc1 | inconclusive [inhibitor, single point] | –
3 | Cc1ccc(-c2csc(N3CCC(NS(=O)(=O)c4ccc5c(c4)OCCO5)CC3)n2)cc1 | inconclusive [inhibitor, single point] | –
4 | C#CC1(O)CCC2C3CCC4=C(CCC(=O)C4)C3CCC21C (stereo not drawn) | inconclusive [inhibitor, single point] | –
5 | COC(=O)/C=C/C(=O)Nc1cccnc1 | active: 16.4 µM | –
6 | CCC(C)c1ccc(Nc2ncccc2C#N)cc1 (stereo not drawn) | inactive | –
7 | CCOc1ccccc1NC(=O)Cn1c(=O)nc(-c2ccccc2F)c2cc(Cl)ccc21 | inconclusive [inhibitor, single point] | –
8 | CCn1cc(-c2nnnn2-c2ccc(Cl)cc2)c(=O)c2ccccc21 | inactive | –
9 | Cc1cc(-c2cccc([N+](=O)[O-])c2)nc2ccc3ccccc3c12 | inactive | –
10 | O=C(NCCCNC(=O)c1cnccn1)c1cccc(Cl)c1 | inactive | –
11 | O=[N+]([O-])c1ccccc1/C=N/Nc1nnc(-c2ccccc2)c(-c2ccccc2)n1 | active: 2.06 µM | –
12 | Cc1cccc(-n2c(C)cc(/C=N\NC(=O)c3cccs3)c2C)c1 | active: 18.4 µM | –
13 | COc1ccc(/C=C2\SC(=O)NC2=S)cc1OC | active: 10.3 µM | –
14 | CCN(CC)C(=O)Cn1c(SCC(=O)Nc2ccc(F)cc2)nc2ccccc21 | inconclusive [inhibitor, single point] | –
15 | Cc1ccc(N2C(=O)c3ccccc3NC2c2ccccc2O)cc1 (stereo not drawn) | inconclusive [inhibitor, single point] | –
16 | CCOc1ccc2nc(NC(=O)c3ccco3)sc2c1 | inconclusive [inhibitor, single point] | –
17 | Cc1ccc(S(=O)(=O)Nc2ccc(Nc3ccccc3)cc2)cc1 | inconclusive [inhibitor, partial curve] | –
18 | O=C(Cc1c(F)cccc1Cl)N/N=C/c1cccnc1 | inactive | –
19 | O=C(NC(=S)Nc1ccccc1N1CCCCC1)c1ccc(F)cc1Cl | inconclusive [inhibitor, single point] | –
20 | Cc1cc(NC(=O)CSc2cn(C)c3ccccc23)no1 | inactive | –
21 | c1ccc(CNc2cc(-c3ccoc3)ncn2)cc1 | inactive | –
22 | Cc1cc(C)cc(NS(=O)(=O)c2c(C(=O)N3CCOCC3)c(C)n(C)c2C)c1 | inconclusive [inhibitor, single point] | –
23 | CCOc1ccc(NC(=O)N(CC(C)C)CC(C)C)cc1 | – | inconclusive: -30.4% [inhibitor]
24 | COc1ccc(N2CCN(C(=O)Cc3csc(NC(=O)Nc4ccccc4OC)n3)CC2)cc1 | active: 16.4 µM | –
25 | COc1ccc(OC)c(S(=O)(=O)N2CCC(c3nc4ccccc4[nH]3)CC2)c1 | inconclusive [inhibitor, single point] | –

Row | SMILES | Potency | activity change, negative = growth inhibition
26 | FC(F)(F)C(F)(F)C(F)(F)C(F)(F)C(F)(F)F | inactive | –
27 | Cc1cccc(OCCNC(=O)c2cncc(Br)c2)c1 | inactive | –
28 | CC(NC(=O)c1ccc(N(C)C)cc1)c1ccc(F)cc1 (stereo not drawn) | inconclusive [inhibitor, single point] | –
29 | CN(C)CCOC(=O)C1(c2ccccc2)CCCC1 | inactive | –
30 | O=C(CSc1ccc(-c2ccccc2)nn1)Nc1ccc2c(c1)OCCO2 | inconclusive [inhibitor, partial curve, poor fit] | –
31 | COc1ccc2c(CNC3CCC(C)CC3)c(C(=O)O)n(Cc3ccc(F)cc3)c2c1 (stereo not drawn) | inconclusive [inhibitor, single point] | –
32 | O=C(COC(=O)c1cccc(O)c1)Nc1ccc(OC(F)F)cc1 | inactive | –
33 | CCOc1ccccc1C(=O)NCc1ccc2c(c1)CCN2C(=O)c1ccc(F)cc1 | inconclusive [inhibitor, single point] | –
34 | O=C(CCSCc1ccccc1F)N1CCN(c2ccccn2)CC1 | inactive | –
35 | Cc1ccn2c(=O)c(NC(=O)c3cccs3)c(C)nc2c1 | inactive | –
36 | Cn1c(SCc2ccc(F)cc2)nc2ccc(C(=O)NCc3cccc(Cl)c3)cc21 | active: 16.4 µM | –
37 | CCN(C(=O)c1c(C)oc2ncnc(N3CCCCC3)c12)c1cc(C)ccc1C | inconclusive [inhibitor, single point] | –
38 | CC(C)=CCC/C(C)=C/CC/C(C)=C/CC/C(C)=C/CC/C(C)=C/CC/C(C)=C/CC/C(C)=C/CC/C(C)=C/CC/C(C)=C/CO | inactive | –
39 | CCCN1CCC(NC(=O)Nc2ccc(Br)cc2)CC1 | – | inconclusive: -32.3% [inhibitor]
40 | Cc1ccc(N(C)S(=O)(=O)c2cccc(C(=O)NCC(c3cccs3)N3CCOCC3)c2)cc1 (stereo not drawn) | inconclusive [inhibitor, single point] | –
41 | CS(=O)(=O)N1CCN(c2ccccc2NC(=O)c2ccc3ccccc3c2)CC1 | inconclusive [inhibitor, single point] | –
42 | COc1cc(/C=N/Nc2ccc([N+](=O)[O-])cc2S(=O)(=O)N2CCOCC2)cc(OC)c1OC | inactive | –
43 | O=C(CSCc1c(F)cccc1F)Nc1ccccc1 | inactive | –
44 | O=C(O)Cc1ccc(-n2cccc2)cc1 | inactive | –
45 | Cc1ccc(C(=O)NCCc2csc(-c3cccc(F)c3)n2)cc1C | inactive | –
46 | CCOC(=O)c1ccccc1NC(=O)CSc1ccc(-c2sc(C)nc2C)nn1 | active: 14.6 µM | –
47 | COc1ccc(-c2noc(CN(C(=O)c3ccc(C)cc3C)C(C)C)n2)cc1 | active: 23.1 µM | –
48 | CC(C)(C)n1nnnc1C(c1cccnc1)N1CCOCC1 (stereo not drawn) | inactive | –
49 | Cc1ccc(-c2[nH]ncc2CNC(C)c2ccccc2)cc1 (stereo not drawn) | inconclusive [inhibitor, single point] | –
50 | O=c1ccccn1CCOc1ccccc1Cl | inactive | –

Row | SMILES | Potency | activity change, negative = growth inhibition
51 | CCOC(=O)Cc1cc(=O)[nH]n(-c2ccccc2)c1=O | inactive | –
52 | COc1ccccc1C(=O)N/C(=C/c1ccco1)C(=O)Nc1cccc(C(=O)O)c1 | inactive | –
53 | Cc1occc1C(=O)NCCCc1ccccc1 | inconclusive [inhibitor, full curve, poor fit] | –
54 | CCOC(=O)c1cccc(NC(=O)COc2ccc3c(C)cc(=O)oc3c2)c1 | inactive | –
55 | CCOC(=O)c1cnc2c(ccc3ccccc32)c1Nc1ccccc1O | active: 20.6 µM | –
56 | O=C(CN1C2CCCC1CC(NC(=O)C1CCCCC1)C2)NCc1ccc(F)cc1 (stereo not drawn) | inconclusive [inhibitor, single point] | –
57 | CCN(CC(=O)Nc1ccc(NC(C)=O)cc1)C(=O)c1cc([N+](=O)[O-])ccc1Sc1ccc(Cl)cc1 | inconclusive [inhibitor, single point] | –
58 | COc1cc2nc(NCCc3cccc(C)c3)n3nc(-c4ccccc4)nc3c2cc1OC | inconclusive [inhibitor, partial curve, poor fit] | –
59 | CCC(C)[C@H]1O[C@]2(C=C[C@@H]1C)C[C@@H]1C[C@@H](C/C=C(\C)[C@@H](O[C@H]3C[C@H](OC)[C@@H](O[C@H]4C[C@H](OC)[C@H](NC(C)=O)[C@H](C)O4)[C@H](C)O3)[C@@H](C)/C=C/C=C3\CO[C@@H]4[C@H](O)C(C)=C[C@@H](C(=O)O1)[C@]34O)O2 (stereo partly drawn) | active: 1.06 µM and active: 4.22 µM | –
60 | Cc1ccc(C2Nc3cccc4cccc(c34)N2)s1 | inconclusive [inhibitor, single point] | –
61 | C=C1CCC[C@]2(C)C[C@H]3OC(=O)C(CNC(C)CCCC(C)C)[C@H]3CC12 (stereo partly drawn) | inconclusive [inhibitor, partial curve, poor fit] | –
62 | Cc1cc(C)c2cc(CN(Cc3ccc4c(c3)OCO4)Cc3nnnn3Cc3ccco3)c(=O)[nH]c2c1 | inconclusive [inhibitor, single point] | –
63 | COc1cccc(CN2CCN(CC(=O)Nc3ccccc3Cl)CC2)c1 | inconclusive [inhibitor, single point] | –
64 | CCOc1ccccc1C(=O)Nc1cccc(-c2nc3ccccc3s2)c1 | active: 6.51 µM | –
65 | Cc1ccc(SC(C)C(=O)N2CCCC2)cc1 (stereo not drawn) | inactive | –
66 | Cc1ccnc(Sc2ccc([N+](=O)[O-])cc2[N+](=O)[O-])n1 | active: 0.731 µM | –
67 | CCc1cc(CNC(=O)c2cccc(OC3CCN(S(C)(=O)=O)CC3)c2)on1 | inconclusive [inhibitor, partial curve, poor fit] | –
68 | CNc1ccc(/C=C2\COc3ccccc3C2=O)cc1[N+](=O)[O-] | inconclusive [inhibitor, single point] | –
69 | CCC(=O)N1CCCc2cc(S(=O)(=O)N3CCC(C(=O)NC4CCC(C)CC4)CC3)ccc21 (stereo not drawn) | inconclusive [inhibitor, partial curve] | –
70 | COc1ccc(S(=O)(=O)Nc2ccc3c(c2)C(=O)N([C@@H](C)CO)C[C@@H](C)[C@H](CN(C)S(=O)(=O)c2ccc(F)cc2)OCCCC[C@H](C)O3)cc1 | inconclusive [inhibitor, single point] | –
71 | COc1ccc(-n2c(CCc3ccccc3)nnc2SCC(=O)NCc2ccccc2)cc1 | inconclusive [inhibitor, partial curve] | –
72 | O=C(Nc1ccccc1)Nc1ccccc1-n1ccnc1 | inactive | –
73 | O=C(OCc1cc(=O)n2nc(C3CC3)sc2n1)c1cccc(NC(=O)c2ccccc2Cl)c1 | active: 20.6 µM | –
